The RNAGym collection of RNA variant scans (doi:10.1073/pnas.2313332121)
Variants at the floor of the assay are shown more often than the library holds them.

B1: TPR 5TU (parent)
chain: GGAUCUUCUCGAUCUAACAAAAAAGACAAAUCUGCCACAAAGCUUGAGAGCAUCUUCGGAUGCAGAGGCGGCAGCCUUCGGUGGCGCGAUAGCGCCAACGUUCUCAACUAUGACACGCAAAACGCGUGCUCCGUUGAAUGGAGUUUAUCAUG

Variants of: B1
Assay: polymerase ribozyme fitness, log enrichment relative to wild type (log ratio); higher = more active; in vitro selection for triplet polymerase activity
In short: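 Libraries of mutants in each subunit of a heterodimeric triplet polymerase ribozyme were generated by PCR and transcribed. In triplicate, each went through one in vitro selection round: annealing with biotinylated primer, partner subunit and triplets; frozen incubation at −7 °C; gel excision of extended constructs; streptavidin-bead capture; RT-PCR. Fitness, taken from Illumina sequencing of input and output libraries, is the logarithm of a genotype's enrichment over wild-type enrichment, averaged across replicates with inverse-variance weights. The logarithm is base 2, and genotypes needed ≥10 input reads and ≥1 read per output to be kept.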

| Variant | polymerase ribozyme fitness (log ratio) |
| --- | --- |
| A21C A23G G46A A73G G94C G112A | ≤ -4.2 |
| A21G C76G A91C G92A A113C | ≤ -4.2 |
| A20U C54G A91G A106G U144C | ≤ -4.2 |
| A21C C54A C57G A107C G141A | ≤ -4.2 |
| A21G U31A C51G G71U A89C A106G A110U A138G | ≤ -4.2 |
| A20U A40U C85G A98U C114A | ≤ -4.2 |
| A22C A47C C51G A64G C72A C95U A107G A113U U135A | ≤ -4.2 |
| A20U C43A G70C G83A U148A | ≤ -4.2 |
| A20U G42C C87U G100C C105U G140C | ≤ -4.2 |
| A21G A22U A24G A39U C87A C96A U148C | ≤ -4.2 |
| A20U A29C A30G C54A G67C G80U C93U G94A A97C C99U | ≤ -4.2 |
| A21G U33G C63U G67U C79G C87A A120U | ≤ -4.2 |
| A20G C75A G84A G100A | ≤ -4.2 |
| A20U A28U G65C G88C U104G | ≤ -4.2 |
| A20U C27A U31G A40G G42U C96G A97G | ≤ -4.2 |
| A20C U56C U78G G81A C95A C103U G117A G140C A147C U148A | ≤ -4.2 |
| A22C A29G G84A A97U A115C G141A | ≤ -4.2 |
| A20G A52U C85A A91G C99G G117U U148A | ≤ -4.2 |
| A20U G42A G62A G86U U134G G140U | ≤ -4.2 |
| A21U G34U C51U G86A A89U U145G | ≤ -4.2 |
| A21U U33A A64U C85G A91C C105U C108G G126U | ≤ -4.2 |

| Variant | polymerase ribozyme fitness (log ratio) |
| --- | --- |
| A21U U56A C76U C93A G100C C114G | ≤ -4.2 |
| A21G U82A C96A U101G A121U | 0.493 |
| A21U C96A | -0.443 |
| A21G U77A A91G | ≤ -4.2 |
| A21U G59C C69U C93G G100A G124U | ≤ -4.2 |
| A21G C27A G46A A73G C87A | ≤ -4.2 |
| A21U G59U C105U C129A | -2.46 |
| A20U C85G C125A U145C | -3.41 |
| A21G A91G G117U A142C | ≤ -4.2 |
| A21C G68U C93U C95U | ≤ -4.2 |
| A21U C57A C87G | ≤ -4.2 |
| A21U C99U C116U C125U | -1.64 |
| A21G C57G C87G | ≤ -4.2 |
| A20G C57A C69A C76U C96U | -1.94 |
| A21C A39G A41C G94U A119C A142U | ≤ -4.2 |
| A21U C32A C51U A73G U134G | ≤ -4.2 |
| A21U C63A C85U U90A G94A C103U G143U | ≤ -4.2 |
| A20U A22U C93U G143U | ≤ -4.2 |
| A21C A22G G34U G46U G67C U77C C87A | ≤ -4.2 |
| A21C G68U | ≤ -4.2 |
| A20U G71A C95A | ≤ -4.2 |

| Variant | polymerase ribozyme fitness (log ratio) |
| --- | --- |
| A21U C38A U102A A120U A147C | -2.82 |
| A20U A21C A60C C72A G141U | ≤ -4.2 |
| A20G A30U C95U | -3.5 |
| A22C A24C A26U U56A C93U U134G A142C G152U | ≤ -4.2 |
| A21G U44A G68U G83U A106G A115U C118A A119C C123U U144G | ≤ -4.2 |
| A21G G74C C75A C95U | ≤ -4.2 |
| A20U A49G C85U A110G U148A | ≤ -4.2 |
| A21U C51U G74A A119U | ≤ -4.2 |
| A21U C36G U56C C75U C87G | ≤ -4.2 |
| A20U G25A C87G G100A U127G G141A | ≤ -4.2 |
| A21U C35U C43U U53A A60U G83C A98G A113G | ≤ -4.2 |
| A21U A41U U111A A121U A142C A150G | ≤ -4.2 |
| A21G G25C C35U U101G C108G | ≤ -4.2 |
| A20U A30U C76U A89G A91C A122G U134G | ≤ -4.2 |
| A21C C87U A147U | 0.884 |
| A20U G59U A91U C96G G100U | ≤ -4.2 |
| A22C A28U A37G U45A C69U A73U G80U C95A A150C | ≤ -4.2 |
| A21U U55A C85U U148A | -4.07 |
| A22C A29U C51G U78G C87G C96A C114U G124A U139A | ≤ -4.2 |
| A21G U56C G74C U104G A142G | ≤ -4.2 |
| A21C C32G A91C C93U A142U | ≤ -4.2 |

| Variant | polymerase ribozyme fitness (log ratio) |
| --- | --- |
| A21G A40U A52C G58U G68C G88C G92A G112U U135A | ≤ -4.2 |
| A20G A47C G48C G50C U56C C87A C95G U139A G141A | -4.1 |
| A20U A24G U55G G86C G94A G140A | ≤ -4.2 |
| A20U A24G A41C G42U C96A C103A A106U | ≤ -4.2 |
| A22C A24G A26U A52G G80A C85G G94U C123U | ≤ -4.2 |
| A21U G50U C85U G86U G88U C129G G133C A142G | ≤ -4.2 |
| A20G G25A A49G C54U C76U G84A A122U U145G | ≤ -4.2 |
| A20U A26U U53A U78G U90G A91U C129U A150G | ≤ -4.2 |
| A22C A26U U56A G59C C87G U111C | ≤ -4.2 |
| A21U G42C C75U G86C | ≤ -4.2 |
| A20C U55A G67C G124A A137U | ≤ -4.2 |
| A20U C38U A39C C57U C87A | ≤ -4.2 |
| A21C A22U G88C A98G G141A U148C | ≤ -4.2 |
| A20U U31C U53A C95A A113C | ≤ -4.2 |
| A21U A29G G68U A122G | ≤ -4.2 |
| A20U C93U G126A | -1.5 |
| A21U C27U C87G G88C G152A | ≤ -4.2 |
| A21G U55C G59C C75A U78C G84C C114G U135G | ≤ -4.2 |
| A21U A23C G58A C63A G84U U90A C118A | ≤ -4.2 |
| A21C A37U A40C G88C U104G A106U | ≤ -4.2 |
| A20G G25A A40U A47G G48C C85A A142G | ≤ -4.2 |
